“And” between values parts separate entries of the source, which are not always exact repeats. Identical values can stand only once. In all, about 230,000 compounds went through this assay and about 3,600 (1.6%) were called active. Inconclusive means that the source gave no clear call. Such entries were picked first, then a sample of the others. The call rests on the fitted dose curve; in most records, active means well fitted inhibition curve with a large enough effect (not every such curve was filed as active); inconclusive means small, poorly fitted or top-dose-only effect, or another doubt; inactive means no such curve, though single readings can be large or run the other way. A potency beside an inconclusive call is a rough fit, not a confirmed value.
What follows are compounds tested against Lysine-specific demethylase 4E (Homo sapiens) (UniProt B2RXH2) (assay: qHTS Assay for Inhibitors of Human Jumonji Domain Containing 2E (JMJD2E)). Conditions: JMJD2E catalytic domain, FDH-coupled NADH fluorescence (FDH is formaldehyde dehydrogenase); series mostly up to 57.1 µM.
UniProt B2RXH2, sequence (B2RXH2 whole entry, looked up, the tested form may be a part): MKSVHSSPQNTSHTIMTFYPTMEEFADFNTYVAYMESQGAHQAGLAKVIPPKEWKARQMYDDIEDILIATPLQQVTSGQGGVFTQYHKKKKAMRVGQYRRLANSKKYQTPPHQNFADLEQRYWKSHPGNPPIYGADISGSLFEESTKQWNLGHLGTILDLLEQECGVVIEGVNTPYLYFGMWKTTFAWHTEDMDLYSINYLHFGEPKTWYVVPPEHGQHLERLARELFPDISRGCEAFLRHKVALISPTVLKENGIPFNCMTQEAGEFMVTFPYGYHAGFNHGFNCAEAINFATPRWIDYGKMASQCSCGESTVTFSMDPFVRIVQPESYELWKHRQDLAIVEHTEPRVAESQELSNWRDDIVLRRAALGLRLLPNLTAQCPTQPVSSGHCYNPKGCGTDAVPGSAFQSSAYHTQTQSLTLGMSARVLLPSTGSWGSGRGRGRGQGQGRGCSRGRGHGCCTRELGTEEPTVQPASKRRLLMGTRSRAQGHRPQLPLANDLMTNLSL
Further: nearly all actives have a fitted effect of over 50% in size.
Potency means the concentration at half of the fitted maximal effect; tags describe the fitted curve by direction and shape.

Question: How did the Potency turn out when CN(C)c1ccc(-c2nn3c(-c4ccc(Cl)cc4)nnc3s2)cc1 was run?
Answer: inconclusive: 3.16 µM [inhibitor, partial curve]

Question: For Cc1ccc(-n2cc(CN3CCN(C(=O)c4ncn[nH]4)CC3)c(-c3ccc(F)cc3)n2)cc1, which Potency is on record?
Answer: inconclusive: 39.8 µM [inhibitor, single point]

Question: Which Potency does the source give for COc1cc2c(cc1OC)CN(C(=O)c1cc(=O)c3ccccc3o1)CC2 here?
Answer: inconclusive: 39.8 µM [inhibitor, single point]

Question: Which Potency does the source give for CCOC(=O)C1CCN(S(=O)(=O)c2cccc(-c3cn4cccnc4n3)c2)CC1 here?
Answer: inconclusive: 28.2 µM [inhibitor, partial curve]

Question: How did the Potency turn out when Cc1ccc2c(c1)c1c(n2C)C(C(N)=O)CCC1 (stereo unspecified) was run?
Answer: inactive

Question: How did the Potency turn out when CCc1ccc2c(c1)cc(CN(C(=S)Nc1ccc(Cl)cc1)C1CC1)c1nnnn12 was run?
Answer: inactive

Question: Which Potency does the source give for Cc1ccccc1C(=O)NC(=S)Nc1ccccc1C(=O)O here?
Answer: inconclusive: 31.6 µM [inhibitor, partial curve]

Question: With O=C(c1cc2c(s1)-c1ccccc1OC2)N1CCN(c2ccccn2)CC1 as the compound, how does the Potency read?
Answer: inconclusive: 28.2 µM [inhibitor, partial curve]

Question: Which Potency does the source give for N#Cc1sc2nc(-c3cccs3)cc(-c3ccccc3)c2c1N here?
Answer: inconclusive: 20 µM [inhibitor, partial curve]

Question: How did the Potency turn out when S=C1NCN(Cc2cccnc2)CN1c1cccc2ccccc12 was run?
Answer: inactive

Question: CCOC(=O)c1sc(Nc2ccc(C)cc2C)nc1C was tested. Which Potency did it give?
Answer: inconclusive: 35.5 µM [inhibitor, single point]

Question: Which Potency does the source give for O=c1c(-c2ccc3c(c2)OCCO3)coc2c(CN3CCOCC3)c(O)ccc12 here?
Answer: inconclusive: 25.1 µM [inhibitor, partial curve]

Question: COC(=O)c1ccc(C(=O)OC)c(NC(=O)N2c3ccccc3Sc3ccccc32)c1 was tested. Which Potency did it give?
Answer: inconclusive: 22.4 µM [inhibitor, partial curve]

Question: COc1ccccc1-c1cc(C(F)(F)F)nc(S(=O)(=O)CCCC(=O)Nc2cccnc2Cl)n1 was tested. Which Potency did it give?
Answer: inconclusive: 31.6 µM [inhibitor, partial curve]

Question: Which Potency does the source give for Cc1onc(-c2cccc(Cl)c2Cl)c1C(=O)O/N=C(\N)c1ccc([N+](=O)[O-])o1 here?
Answer: inactive

Question: Which Potency does the source give for COC(=O)C(C(C)=O)C1=C/C(=N\S(=O)(=O)c2ccc(C)cc2)c2ccccc2C1=O (stereo unspecified) here?
Answer: inconclusive: 25.1 µM [inhibitor, single point]

Question: CCOC(=O)C(=CNc1ccc(-c2ccco2)c(Cl)c1)C(=O)OCC was tested. Which Potency did it give?
Answer: inconclusive: 35.5 µM [inhibitor, partial curve]

Question: How did the Potency turn out when COc1ccc2cc(CCNC(=O)C(C)(C)C)c(=O)[nH]c2c1 was run?
Answer: inconclusive: 25.1 µM [inhibitor, single point]

Question: CC(c1nccs1)N(C)c1nc2nonc2nc1N(C)C (stereo unspecified) was tested. Which Potency did it give?
Answer: inconclusive: 0.708 µM [inhibitor, full curve, poor fit]

Question: For CC[C@H](C)/C=C(C)/C=C/C1=CC2=CC(=O)[C@]3(C)OC(=O)[C@@H](C(C)=O)[C@@H]3C2=CO1, which Potency is on record?
Answer: inconclusive: 31.6 µM [inhibitor, partial curve]

Question: CCOc1ccccc1N(C(=O)Cn1nnnc1-c1ccc(C)o1)C(CC)C(=O)NC(C)(C)C (stereo unspecified) was tested. Which Potency did it give?
Answer: inconclusive: 6.31 µM [inhibitor, single point]

Question: For COC(=O)c1cc(C#N)c(SCc2ccccc2)nc1C, which Potency is on record?
Answer: inactive

Question: For COc1cc(C)c(C(C)C)cc1S(=O)(=O)N1CCN(C)CC1, which Potency is on record?
Answer: inactive

Question: For CCCCCC(=O)/C=C/C=C\CCCCCCCC(=O)O, which Potency is on record?
Answer: inconclusive: 39.8 µM [inhibitor, single point]

Question: How did the Potency turn out when Cc1nc(NCc2ccccc2)c2nc(-c3ccccc3)n(CC3CCN(C)CC3)c2n1 was run?
Answer: inconclusive: 31.6 µM [inhibitor, partial curve]

Question: Which Potency does the source give for Cc1sc(NC(=O)c2cccs2)nc1-c1ccccc1 here?
Answer: inactive

Question: How did the Potency turn out when COc1ccc(/C=C/c2nc(N)nc(-c3ccccc3O)n2)cc1OC was run?
Answer: inactive

Question: With CCOC(=O)c1cc2c(=O)n3cccc(C)c3nc2n(CCOC)c1=NC(C)=O as the compound, how does the Potency read?
Answer: inconclusive: 31.6 µM [inhibitor, partial curve]

Question: How did the Potency turn out when CCc1ccccc1NC(=S)N(Cc1ccco1)C(C)c1cccs1 (stereo unspecified) was run?
Answer: inactive

Question: For CCCNc1c(N)n(-c2ccccc2)c(=O)[nH]c1=O, which Potency is on record?
Answer: inconclusive: 25.1 µM [inhibitor, partial curve]

Question: For CCOC(=O)N1CCC(c2cc(=O)n3[nH]c(-c4ccccc4)cc3n2)CC1, which Potency is on record?
Answer: inconclusive: 17.8 µM [inhibitor, partial curve]

Question: Which Potency does the source give for O=C(O)c1ccc(-c2ccccc2C(F)(F)F)o1 here?
Answer: inactive

Question: With Cc1nn(-c2ccccc2)c(N2CCCC2)c1/C=N/NC(=O)c1ccccc1O as the compound, how does the Potency read?
Answer: inconclusive: 35.5 µM [inhibitor, single point]

Question: Which Potency does the source give for COc1cc2[nH]c(=O)n(CCC(=O)N3CCC(N4CCCCC4)CC3)c(=O)c2cc1OC here?
Answer: inconclusive: 25.1 µM [inhibitor, partial curve]

Question: How did the Potency turn out when O=C(c1cccs1)c1coc2ccc(O)c(CN(CCO)CCO)c12 was run?
Answer: inconclusive: 39.8 µM [inhibitor, single point]

Question: With CCc1ccc(OCCCC(=O)Nc2nnc(C3CCCO3)s2)cc1 (stereo unspecified) as the compound, how does the Potency read?
Answer: inactive

Question: CC1(C)CC(=O)C2=C(C1)NC(SCC(=O)Nc1ccccc1)=C(C#N)C21CCCCC1 was tested. Which Potency did it give?
Answer: inconclusive: 39.8 µM [inhibitor, single point]

Question: Which Potency does the source give for CCn1c(C)cc(C)c(C#N)c1=O here?
Answer: inconclusive: 39.8 µM [inhibitor, single point]

Question: O=[N+]([O-])c1cccc(-c2ccc(/C=N/NC(=S)Nc3cccc(F)c3)o2)c1 was tested. Which Potency did it give?
Answer: inactive

Question: For CCOC(=O)c1[nH]c2ccc(OC)cc2c1NC(=S)N1CCN(C(=O)OCC)CC1, which Potency is on record?
Answer: inconclusive: 28.2 µM [inhibitor, single point]

Question: For O=C(Nc1ccnc(-c2ccncc2)n1)C1CC1, which Potency is on record?
Answer: inactive

Question: For [O-][n+]1c2ccc3nonc3c2nn1-c1ccccc1Cl, which Potency is on record?
Answer: inconclusive: 28.2 µM [inhibitor, single point]

Question: Which Potency does the source give for CCCCC[n+]1cccc2c3ccccc3ccc21 here?
Answer: inconclusive: 28.2 µM [inhibitor, partial curve]

Question: For Cc1ccc(S(=O)OCC(=O)Nc2cc(Cl)ccc2N2CCOCC2)cc1 (stereo unspecified), which Potency is on record?
Answer: inactive

Question: How did the Potency turn out when O=C(Cc1cccs1)NCCSc1c(-c2ccc(Cl)cc2)[nH]c2ccccc12 was run?
Answer: inconclusive: 6.31 µM [inhibitor, single point]

Question: How did the Potency turn out when Cc1ccc(-n2nc3c(c2NC(=O)/C=C\c2ccc4c(c2)OCO4)CSC3)c(C)c1 was run?
Answer: inconclusive: 35.5 µM [inhibitor, single point]

Question: Which Potency does the source give for CCOC(=O)CSc1nc2sc(C(=O)O)c(C)c2c(=O)[nH]1 here?
Answer: inactive

Question: How did the Potency turn out when COc1ccccc1NC(=O)CCC(=O)Nc1ccccc1OC was run?
Answer: inactive

Question: For CC1CN(CCCOc2ccc([N+](=O)[O-])cc2)CC(C)O1 (stereo unspecified), which Potency is on record?
Answer: inactive

Question: With COc1ccc(Nc2cc(=O)n(C3CCCCC3)c(=O)[nH]2)c(OC)c1 as the compound, how does the Potency read?
Answer: inactive

Question: How did the Potency turn out when O=c1n(CCCN2CCN(c3cccc(Cl)c3)CC2)nc2ccccn12 was run?
Answer: inconclusive: 25.1 µM [inhibitor, partial curve] [middle of 4 runs]

Question: How did the Potency turn out when N#Cc1nc(-c2ccc(F)cc2)oc1NCCN1CCOCC1 was run?
Answer: inconclusive: 31.6 µM [inhibitor, partial curve]

Question: CCn1c(NC(=O)Nc2cccc(C)c2C)cc2sccc21 was tested. Which Potency did it give?
Answer: inconclusive: 31.6 µM [inhibitor, single point]

Question: With O=C(Cc1nc2ccccc2[nH]c1=O)c1ccc(Cl)cc1 as the compound, how does the Potency read?
Answer: inconclusive: 20 µM [inhibitor, partial curve]

Question: How did the Potency turn out when COc1ccc(CNC(=O)COC(=O)c2cc(-c3ccco3)nc3ccccc23)cc1 was run?
Answer: inconclusive: 28.2 µM [inhibitor, partial curve]

Question: With CCc1ccc2c(c1)/C(=N/N(C)C(=S)NC)C(=O)N2 as the compound, how does the Potency read?
Answer: inactive

Question: How did the Potency turn out when COc1cc(/C=N/N(C)c2ccccc2)cc(Cl)c1O was run?
Answer: inactive

Question: Which Potency does the source give for Cc1ccc(-n2cc(CN3CCNC(=O)CC3)c(-c3cccc(C)c3)n2)cc1 here?
Answer: inconclusive: 39.8 µM [inhibitor, single point]

Question: Which Potency does the source give for O=C(CSc1ccsc1[N+](=O)[O-])N1CCN(c2ccc(Cl)cc2)CC1 here?
Answer: inactive

Question: How did the Potency turn out when Cc1onc(-c2ccccc2)c1C(=O)Nc1nnc(COc2ccc(Cl)cc2)s1 was run?
Answer: inconclusive: 20 µM [inhibitor, partial curve]

Question: With Oc1ccc(-c2nc(-c3ccc(F)cc3)c(-c3ccncc3)[nH]2)cc1 as the compound, how does the Potency read?
Answer: inconclusive: 14.1 µM [inhibitor, full curve] and inconclusive: 31.6 µM [inhibitor, partial curve]

Question: CC1=CC2=NC(=O)/C(=C/c3coc4ccc(Cl)cc4c3=O)C(=N)N2O1 was tested. Which Potency did it give?
Answer: inconclusive: 31.6 µM [inhibitor, partial curve]

Question: With COc1ccc(S(=O)(=O)Nc2ccc(S(=O)(=O)N3CCCCC3)cc2)cc1 as the compound, how does the Potency read?
Answer: inactive

Question: How did the Potency turn out when CC(=O)c1c(C)nc2nonc2c1N was run?
Answer: inconclusive: 31.6 µM [inhibitor, single point]

Question: Which Potency does the source give for CCOC(=O)c1ccc(-c2n[nH]c(=O)c3ccccc23)cc1 here?
Answer: inconclusive: 35.5 µM [inhibitor, single point]

Question: O=C(CCS(=O)(=O)Cc1ccccc1)N1CCN(c2ccc([N+](=O)[O-])cc2)CC1 was tested. Which Potency did it give?
Answer: inactive

Question: How did the Potency turn out when NC(Cc1cc(I)c(Oc2ccc(O)c(I)c2)c(I)c1)C(=O)O (stereo unspecified) was run?
Answer: inactive

Question: How did the Potency turn out when COc1ccccc1NC(=O)c1cc2cc(Br)ccc2cc1O was run?
Answer: inconclusive: 22.4 µM [inhibitor, single point]

Question: How did the Potency turn out when O=C1c2ccccc2C(Nc2cccnc2)N1Cc1ccc2c(c1)OCO2 (stereo unspecified) was run?
Answer: inactive

Question: With Nc1nc(N2CCOCC2)nc2ccccc12 as the compound, how does the Potency read?
Answer: inconclusive: 22.4 µM [inhibitor, partial curve]

Question: N#C/C(=C/c1ccc(-c2ccc(S(N)(=O)=O)cc2)o1)C(=O)Nc1ccccc1 was tested. Which Potency did it give?
Answer: inconclusive: 25.1 µM [inhibitor, single point]

Reference: PubChem BioAssay AID2147 (National Center for Advancing Translational Sciences (NCATS), 2009)
